Experimental data taken from the supplement of paper PMC7125110.
This sample is rich in variants without activity.

B1: glmS ribozyme (parent)
chain: AUAAAAGCGCCAGAACUACAGAAAUGUAGUUGACGAGGAGGAGGUUUAUCGAAUUUUCGGCGGAUGCCUCCAAA

Assays:
Settings in all cases: with glucosamine-6-phosphate
[1] = variants of: B1; assay: self-cleavage kobs at 40 uM GlcN6P; higher = faster cleavage; RNA array
Procedure, shortened: (§1)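 Weighted Michaelis–Menten fits across concentrations supplied kcat and KM, based on kobs from one- or two-exponential decay fits to normalised per-tile medians. The data came from barcoded ribozyme variants transcribed in situ by E. coli RNA polymerase on sequenced MiSeq chips and tracked at 37 °C by a hybridised Cy3 probe. Glucosamine-6-phosphate (40 μM to 10 mM) in HEPES/KCl/Mg(OAc)2 buffer was flowed in.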

[2] = variants of: B1; assay: self-cleavage kobs at 640 uM GlcN6P; higher = faster cleavage; RNA array
Procedure, shortened: as §1

[3] = variants of: B1; assay: self-cleavage kobs at 160 uM GlcN6P; higher = faster cleavage; RNA array
Procedure, shortened: as §1

[4] = variants of: B1; assay: self-cleavage kobs at 2500 uM GlcN6P; higher = faster cleavage; RNA array
Procedure, shortened: as §1

[5] = variants of: B1; assay: self-cleavage kobs at 10000 uM GlcN6P; higher = faster cleavage; RNA array
Procedure, shortened: as §1

AUAAAAGCGCCAGAACUACAGAAAUGUAGUUGACAAGGAGGAGGUUUAUCGAAUUUUCGGCGGGUGCCUGCAAA [G35A A64G C70G]
< 1e-05 s⁻¹: self-cleavage kobs at 40 uM GlcN6P [1]

AUAAAAGCGCCAGAACUACAGAAAUGUAGUUGACAAGGAUGAGGUUUAUCGAAUUUUCGGCGGAUGCCUCCAAA [G35A G40U]
< 1e-05 s⁻¹: self-cleavage kobs at 40 uM GlcN6P [1] | self-cleavage kobs at 640 uM GlcN6P [2] | self-cleavage kobs at 160 uM GlcN6P [3] | self-cleavage kobs at 2500 uM GlcN6P [4] | self-cleavage kobs at 10000 uM GlcN6P [5]

AUAAAAGCGCCAGAACUACAGAAAUGUAGUUGACAAGGAAGAGGUUUAUCGAAUUUUCGGCGGAUGCCUCCAAA [G35A G40A]
< 1e-05 s⁻¹: self-cleavage kobs at 40 uM GlcN6P [1] | self-cleavage kobs at 160 uM GlcN6P [3] | self-cleavage kobs at 2500 uM GlcN6P [4]

AUAAAAGCGCCAGAACUACAGAAAUGUAGUUGACAAGGAGGAGGUUUAUCGCAUUUUCGGCGGAUGCCUCCAAA [G35A A52C]
< 1e-05 s⁻¹: self-cleavage kobs at 40 uM GlcN6P [1] | self-cleavage kobs at 640 uM GlcN6P [2] | self-cleavage kobs at 160 uM GlcN6P [3] | self-cleavage kobs at 2500 uM GlcN6P [4] | self-cleavage kobs at 10000 uM GlcN6P [5]

AUAAAAGCGCCAGAACUACAGAAAUGUAGUUGACAAGGAGGAGGUUUAUCGUAUUUUCGGCGGAUGCCUCCAAA [G35A A52U]
< 1e-05 s⁻¹: self-cleavage kobs at 40 uM GlcN6P [1] | self-cleavage kobs at 640 uM GlcN6P [2] | self-cleavage kobs at 160 uM GlcN6P [3] | self-cleavage kobs at 2500 uM GlcN6P [4] | self-cleavage kobs at 10000 uM GlcN6P [5]

AUAAAAGCGCCAGAACUACAGAAAUGUAGUUGACAAGGGGGAGGUUUAUCGAAUUUUCGGCGGAUGCCUCCAAA [G35A A39G]
< 1e-05 s⁻¹: self-cleavage kobs at 40 uM GlcN6P [1] | self-cleavage kobs at 2500 uM GlcN6P [4] | self-cleavage kobs at 10000 uM GlcN6P [5]

AUAAAAGCGCCAGAACUACAGAAAUGUAGUUGACACGGAGGAGGUAUAUCGAAUUUUCGGCGGAUGCCUCCAAA [G35A A36C U46A]
< 1e-05 s⁻¹: self-cleavage kobs at 40 uM GlcN6P [1]

AUAAAAGCGCCAGAACUACAGAAAUGUAGUUGACAAGGUGUAGGUUUAUCGAAUUUUCGGCGGAUGCCUCCAAA [G35A A39U G41U]
< 1e-05 s⁻¹: self-cleavage kobs at 40 uM GlcN6P [1] | self-cleavage kobs at 640 uM GlcN6P [2]

AUAAAAGCGCCAGAACUACAGAAAUGUAGUUGAUGAGGAGGAGGUUUAUCGAAUUUUCGGCGGACGCCUCCAAA [C34U U65C]
< 1e-05 s⁻¹: self-cleavage kobs at 40 uM GlcN6P [1] | self-cleavage kobs at 640 uM GlcN6P [2] | self-cleavage kobs at 160 uM GlcN6P [3] | self-cleavage kobs at 2500 uM GlcN6P [4] | self-cleavage kobs at 10000 uM GlcN6P [5]

AUAAAAGCGCCAGAACUACAGAAAUGUAGUUGACAAGGAGGAGGUUUAUCGGAUUUUCGGCUGAUGCCUCCAAA [G35A A52G G62U]
< 1e-05 s⁻¹: self-cleavage kobs at 40 uM GlcN6P [1]

AUAAAAGCGCCAGAACUACAGAAAUGUAGUUGACAAGGAGGAGGUUUGUCGAAUUUUCGGCGGAUGCCUCCAAA [G35A A48G]
< 1e-05 s⁻¹: self-cleavage kobs at 40 uM GlcN6P [1] | self-cleavage kobs at 640 uM GlcN6P [2] | self-cleavage kobs at 160 uM GlcN6P [3] | self-cleavage kobs at 2500 uM GlcN6P [4] | self-cleavage kobs at 10000 uM GlcN6P [5]

AUAAAAGCGCCAGAACUACAGAAAUGUAGUUGACAACGAGGAGGUUUAUCGAAUUUUCGGCGGAUGCCUCCAAA [G35A G37C]
< 1e-05 s⁻¹: self-cleavage kobs at 40 uM GlcN6P [1] | self-cleavage kobs at 640 uM GlcN6P [2] | self-cleavage kobs at 160 uM GlcN6P [3] | self-cleavage kobs at 2500 uM GlcN6P [4] | self-cleavage kobs at 10000 uM GlcN6P [5]
